We go through 57 molecules from PMC4336329 (PLoS ONE, 2015).

Each structure is given as a SMILES string. The campaign covered roughly 310,000 compounds. About 2,200 (0.71%) showed an effect of 50% or more. The effect is printed as a negative number. Some of the results follow.

In the experiment the target is human ether-à-go-go-related gene (hERG) potassium channel (human, UniProt Q12809). The experiment is described as follows: primary screen, population patch clamp on CHO cells stably expressing hERG.
Chain of human ether-à-go-go-related gene (hERG) potassium channel (Q12809 whole entry, looked up): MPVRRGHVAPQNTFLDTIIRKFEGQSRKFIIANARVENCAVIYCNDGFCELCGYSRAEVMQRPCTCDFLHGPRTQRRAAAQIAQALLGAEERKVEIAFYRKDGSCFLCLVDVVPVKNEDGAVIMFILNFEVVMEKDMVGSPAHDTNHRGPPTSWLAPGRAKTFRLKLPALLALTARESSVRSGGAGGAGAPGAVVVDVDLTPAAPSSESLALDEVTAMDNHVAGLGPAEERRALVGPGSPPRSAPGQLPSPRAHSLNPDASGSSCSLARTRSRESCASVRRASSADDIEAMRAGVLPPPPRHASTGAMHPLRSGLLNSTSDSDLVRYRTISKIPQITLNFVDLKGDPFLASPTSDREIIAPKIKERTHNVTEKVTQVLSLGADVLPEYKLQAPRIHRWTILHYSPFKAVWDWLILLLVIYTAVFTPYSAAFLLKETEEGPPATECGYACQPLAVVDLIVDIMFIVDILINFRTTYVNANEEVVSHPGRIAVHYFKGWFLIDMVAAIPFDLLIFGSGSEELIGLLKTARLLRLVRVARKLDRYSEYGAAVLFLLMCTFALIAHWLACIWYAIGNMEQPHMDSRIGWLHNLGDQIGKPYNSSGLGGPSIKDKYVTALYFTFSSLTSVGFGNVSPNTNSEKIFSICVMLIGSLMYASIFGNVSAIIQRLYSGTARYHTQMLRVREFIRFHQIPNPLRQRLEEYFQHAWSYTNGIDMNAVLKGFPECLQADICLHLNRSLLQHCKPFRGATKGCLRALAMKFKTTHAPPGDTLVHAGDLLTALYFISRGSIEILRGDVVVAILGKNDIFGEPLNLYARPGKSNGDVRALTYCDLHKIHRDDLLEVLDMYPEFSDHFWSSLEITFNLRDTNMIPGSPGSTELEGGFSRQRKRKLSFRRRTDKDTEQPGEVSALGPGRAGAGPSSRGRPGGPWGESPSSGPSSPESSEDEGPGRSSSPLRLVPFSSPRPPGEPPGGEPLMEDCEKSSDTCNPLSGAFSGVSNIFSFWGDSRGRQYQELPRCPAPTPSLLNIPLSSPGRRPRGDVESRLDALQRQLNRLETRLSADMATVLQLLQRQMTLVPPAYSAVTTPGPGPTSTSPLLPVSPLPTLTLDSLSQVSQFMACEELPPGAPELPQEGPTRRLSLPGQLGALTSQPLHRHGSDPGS
Take `Cc1cccc(C(=O)NNC(=S)NC(=O)c2ccccc2)c1`: the “hERG current change (%, negative = inhibition) at 1uM” value came out at 13.6%.
As for `N#Cc1ccc(OC(=O)C2CCN(C3=NS(=O)(=O)c4ccccc43)CC2)cc1`, the “hERG current change (%, negative = inhibition) at 1uM” value stood at 8.56%.
The same measure for `Cc1ccc(-c2nn(-c3ccccc3)cc2CNCc2ccccc2)cc1.Cl`: 8.51%; for `Cc1ccc(C(=O)NCC(c2ccc(F)cc2)N2CCOCC2)cc1` (stereo not drawn): 12.4%.
For `CC(C#N)Sc1ccc(S(=O)(=O)N2CCCCC2)cn1` (stereo not drawn), the “hERG current change (%, negative = inhibition) at 1uM” value was determined as 4.24%.
The same measure for `COc1ccc(OCCOc2ccc(/C=C3\C(=N)N4N=C(C)SC4=NC3=O)cc2)cc1`: 12.3%; for `N=C1S/C(=C\c2ccco2)C(=O)N1c1nccs1`: 15.3%.
For the molecule `Cc1ccc(NC(=O)C2(C)Cc3ccccc3C(=O)O2)cc1` (stereo not drawn), the “hERG current change (%, negative = inhibition) at 1uM” value was found to be 3.78%.
With `c1ccc(-c2[nH]ncc2CN2CCc3ccccc3C2)cc1`, the “hERG current change (%, negative = inhibition) at 1uM” value was determined as 11.7%.
Take `Cc1nc2ccc(OC(=O)c3ccccc3)cc2s1`: the “hERG current change (%, negative = inhibition) at 1uM” value was determined as 9.01%.
For the molecule `O=C(O)CCSSCCC(=O)O`, the “hERG current change (%, negative = inhibition) at 1uM” value is 5.89%.
For `Cl.OCCN1CCN(c2nc3ccccc3nc2-c2ccccc2)CC1`, the “hERG current change (%, negative = inhibition) at 1uM” value is listed as 3.58%.
Consider `Cc1nc2ccc(NC(=O)c3cc(Cl)ccn3)cc2s1`, for which the “hERG current change (%, negative = inhibition) at 1uM” value is reported as 10.2%.
Take `CCn1c(CNC(=O)c2cccs2)nnc1SCC(=O)Nc1ccc(Cl)cc1`: the “hERG current change (%, negative = inhibition) at 1uM” value was -14.2%.
`CCc1nc2c(c(=O)[nH]1)C(CC)(CC)Cc1ccccc1-2`: the “hERG current change (%, negative = inhibition) at 1uM” value is given as 0.0309%.
As for `CC(=O)C1C(c2ccc(C)cc2)c2c(n[nH]c2C)CC1(C)O` (stereo not drawn), the “hERG current change (%, negative = inhibition) at 1uM” value came out at 9.65%.
For the molecule `CCOC(=O)c1cccc(NC(=O)C(NS(=O)(=O)c2ccc3c(c2)CCN3C(C)=O)C(C)C)c1` (stereo not drawn), the “hERG current change (%, negative = inhibition) at 1uM” value was 3.7%.
Turning to `O=C(CNC(=O)c1ccco1)OCc1c(F)cccc1Cl`, the “hERG current change (%, negative = inhibition) at 1uM” value was -4.84%.
`Cc1cccc(N(C(=O)c2csnn2)C(C(=O)NC2CCCC2)c2ccncc2)c1` (stereo not drawn): the “hERG current change (%, negative = inhibition) at 1uM” value is 14.8%.
On to `Cc1[nH]nc(SCC(=O)N2CCCCC2)c1[N+](=O)[O-]`, for which the “hERG current change (%, negative = inhibition) at 1uM” value is 16.1%.
As for `COc1ccc(NC2c3ccccc3C(=O)N2Cc2ccco2)cc1OC` (stereo not drawn), the figure is 5.58%; as for `CCOC(=O)c1ccccc1NC(=S)N1CC(C)CC(C)C1` (stereo not drawn), 1.13%.
With `CCOc1ccc(OCC(O)CN2CCN(S(=O)(=O)c3cccc(C(F)(F)F)c3)CC2)cc1.O=C(O)C(=O)O` (stereo not drawn), the “hERG current change (%, negative = inhibition) at 1uM” value was 14.1%.
As to `CCc1ccccc1NC(=O)CN1CCN(C(=O)CNC(=O)c2ccc(N3CCCC3=O)cc2)CC1`, the “hERG current change (%, negative = inhibition) at 1uM” value is on record as -1.22%.
For `O=C(Nc1ccccc1N1CCOCC1)C1Cc2ccccc2CN1C(=O)c1ccco1` (stereo not drawn), the “hERG current change (%, negative = inhibition) at 1uM” value is listed as -3.76%.
For `O=C1CCC(/C=C/c2ccccc2)=NN1Cc1ccc(Cl)c(Cl)c1`, the “hERG current change (%, negative = inhibition) at 1uM” value is reported as 2.78%.
For `CCOC(=O)c1ccc(COc2ccc(C(C)C)cc2)o1`, the “hERG current change (%, negative = inhibition) at 1uM” value was 6.45%.
As for `O=C(Nc1ccccc1Cl)NC1(C(=O)NCc2ccncc2)CCCCC1`, the “hERG current change (%, negative = inhibition) at 1uM” value was determined as 11.1%.
On to `CC(C)=CC(=O)Nc1ccc(S(=O)(=O)Nc2onc(C)c2C)cc1`, for which the “hERG current change (%, negative = inhibition) at 1uM” value was found to be 20.9%.
With `COc1ccccc1CN1CC(C(=O)N(C)CCc2nc3ccc(F)cc3[nH]2)CCC1=O` (stereo not drawn), the “hERG current change (%, negative = inhibition) at 1uM” value is recorded as 8.15%.
As for `Cn1cc(C(=O)c2ccc(F)cc2)cc1-c1nc2ccccc2n1C`, the figure is 0.0662%; as for `COCCn1c(-c2ccccc2F)n[nH]c1=S`, 16.6%; as for `CCCCN(C)C(=O)c1nc2ccccn2c1CNC1CCC1`, 4.89%.
For the molecule `CCOC(=O)CCNC(=O)N1CCCC(Cc2ccccc2)(C(=O)OCC)C1` (stereo not drawn), the “hERG current change (%, negative = inhibition) at 1uM” value came to 9.25%.
`CCOC(=O)c1c(C)[nH]c(C)c1S(=O)(=O)N1CCN(c2ccc([N+](=O)[O-])cc2)CC1`: the “hERG current change (%, negative = inhibition) at 1uM” value stood at 1.42%.
Take `COc1ccc(CNCc2cc(C)c(OC)cc2C)c(OC)c1.O=C(O)C(=O)O`: the “hERG current change (%, negative = inhibition) at 1uM” value was -35%.
Turning to `CC1(C)OC(C)(C)/C(=C/Nc2ccccc2)C1=O`, the “hERG current change (%, negative = inhibition) at 1uM” value was found to be 10.6%.
As for `Cc1ccc(NC(Cc2cc(C)no2)c2ccccc2)cc1` (stereo not drawn), the “hERG current change (%, negative = inhibition) at 1uM” value is recorded as -2.67%.
The same measure for `COc1ccccc1N1CCN(CC(=O)N(CC(C)C)c2c(N)n(CC(C)C)c(=O)[nH]c2=O)CC1`: 0.707%.
In the case of `CNC(=S)N1N=C(c2ccc(OC)cc2)CC1c1ccc(N(C)C)cc1` (stereo not drawn), the “hERG current change (%, negative = inhibition) at 1uM” value amounted to 0.367%.
As for `O=C(COC(=O)c1cc(-c2cccs2)nn1-c1ccccc1)Nc1cc([N+](=O)[O-])ccc1Cl`, the figure is 9.05%; as for `O=c1cc(N2CCc3ccccc32)[nH]c(=O)n1-c1ccccc1`, 8.14%; as for `O=C(c1ccc(-c2ccccc2)cc1)c1ccccc1C(=O)N1CCOCC1`, -0.441%.
As for `O=C(Nc1ccccc1)N1CCC(C(=O)N2CCN(c3ccccc3F)CC2)CC1`, the figure is 1.91%; as for `O=C(O)CCC(=O)Nc1ccc(N2CCOCC2)cc1`, 5.87%; as for `Cc1ccc(C(=O)N2N=C(c3ccccc3)CC2(O)C(F)(F)F)o1` (stereo not drawn), 15.9%.
As for `Cc1cc(Br)ccc1NC(=O)CNC(=O)c1ccc(-n2cncn2)c([N+](=O)[O-])c1`, the “hERG current change (%, negative = inhibition) at 1uM” value is given as -19.5%.
Consider `COc1ccc(C(=O)NC(=S)NCc2cccnc2)cc1OC`, for which the “hERG current change (%, negative = inhibition) at 1uM” value was -8.98%.
As for `CN1CCC(OC(=O)Cc2ccccc2)CC1.Cl`, the figure is 4.12%.
Turning to `COC(=O)N/N=C/c1c(C)cc(C)cc1C`, the “hERG current change (%, negative = inhibition) at 1uM” value was 10.5%.
As to `CCOc1ccc(N2C(=O)CC(Sc3nccc(C)n3)C2=O)cc1` (stereo not drawn), the “hERG current change (%, negative = inhibition) at 1uM” value was found to be 1.36%.
In the case of `CCc1cccc(NS(=O)(=O)c2ccc3c(c2)NC(=O)CO3)c1`, the “hERG current change (%, negative = inhibition) at 1uM” value stood at 10.9%.
`Cc1ccc(N2C(=O)C3C4CCC(O4)C3C2=O)c(OC(F)F)c1` (stereo not drawn): the “hERG current change (%, negative = inhibition) at 1uM” value was found to be 12.7%.
Take `O=c1c2c([nH]n1-c1ccccc1)CCCC2`: the “hERG current change (%, negative = inhibition) at 1uM” value came out at 10.8%.
For the molecule `O=C(Nc1cccc2nsnc12)c1ccc2c(c1)OCO2`, the “hERG current change (%, negative = inhibition) at 1uM” value is recorded as 1.7%.
Regarding `Cc1cc(=O)[nH]c(N/N=C2/CCCC/C2=C\c2ccccc2)n1`, the “hERG current change (%, negative = inhibition) at 1uM” value is 6.37%.
For `COc1ccc(NC(=O)C2CCN(C(=O)C3CC(=O)N(c4ccc(C)cc4)C3)CC2)c(OC)c1` (stereo not drawn), the “hERG current change (%, negative = inhibition) at 1uM” value came to 0.847%.
